# In the supplement of paper PMC8728848:
# Some of the results follow.
# What was measured:
# Assay in all cases: glycan array binding signal (z-score within array); higher = stronger binding
# Conditions in all cases: glycan notation: IUPAC condensed, linker removed
# [1] = target: Kdn(a2-3)Gal(b1-3)GlcNAc
# How it was run: (§1)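 Glycan array data were curated from 3228 arrays in the Consortium for Functional Glycomics database and kept only where the protein sequence was available. Glycan names were converted to IUPAC-condensed notation, and columns mapping to the same glycan were averaged. The binding signal is a within-array Z-score, averaged across arrays of the same protein sequence at different concentrations or buffers and across linkers. Negative Z-scores can be read as non-binding.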
# [2] = target: Kdn(a2-3)Gal(b1-4)Glc
# How it was run: as §1
# [3] = target: Kdn(a2-3)Gal(b1-4)GlcNAc
# How it was run: as §1
# [4] = target: Kdn(a2-3)Gal(b1-4)[Fuc(a1-3)]GlcNAc
# How it was run: as §1
# [5] = target: Kdn(a2-6)Gal(b1-4)GlcNAc
# How it was run: as §1
# [6] = target: Man(a1-2)Man(a1-2)Man(a1-3)Man
# How it was run: as §1
# [7] = target: Man(a1-2)Man(a1-2)Man(a1-6)[Man(a1-3)]Man
# How it was run: as §1
# [8] = target: Man(a1-2)Man(a1-3)Man
# How it was run: as §1
# [9] = target: Man(a1-2)Man(a1-3)[Man(a1-2)Man(a1-6)]Man
# How it was run: as §1
# [10] = target: Man(a1-2)Man(a1-3)[Man(a1-2)Man(a1-6)]Man(a1-6)[Man(a1-2)Man(a1-2)Man(a1-3)]Man
# How it was run: as §1
# [11] = target: Man(a1-2)Man(a1-3)[Man(a1-2)Man(a1-6)]Man(a1-6)[Man(a1-2)Man(a1-2)Man(a1-3)]Man(b1-4)GlcNAc(b1-4)GlcNAc
# How it was run: as §1
# [12] = target: Man(a1-2)Man(a1-3)[Man(a1-6)]Man(a1-6)[Man(a1-2)Man(a1-3)]Man(b1-4)GlcNAc(b1-4)GlcNAc
# How it was run: as §1
# [13] = target: Man(a1-2)Man(a1-6)[Man(a1-3)]Man(a1-6)[Man(a1-2)Man(a1-2)Man(a1-3)]Man
# How it was run: as §1
# [14] = target: Man(a1-2)Man(a1-6)[Man(a1-3)]Man(a1-6)[Man(a1-2)Man(a1-2)Man(a1-3)]Man(b1-4)GlcNAc(b1-4)GlcNAc
# How it was run: as §1
# [15] = target: Man(a1-3)[Man(a1-6)]Man
# How it was run: as §1
# [16] = target: Man(a1-3)[Man(a1-6)]Man(a1-6)[Man(a1-2)Man(a1-3)]Man(b1-4)GlcNAc(b1-4)GlcNAc
# How it was run: as §1
# [17] = target: Man(a1-3)[Man(a1-6)]Man(a1-6)[Man(a1-3)]Man
# How it was run: as §1
# [18] = target: Man(a1-3)[Man(a1-6)]Man(a1-6)[Man(a1-3)]Man(b1-4)GlcNAc(b1-4)GlcNAc
# How it was run: as §1
# [19] = target: Man(a1-3)[Man(a1-6)]Man(b1-4)GlcNAc(b1-4)GlcNAc
# How it was run: as §1
# [20] = target: Man(a1-6)Man
# How it was run: as §1
# [21] = target: Man(b1-4)GlcNAc
# How it was run: as §1
# [22] = target: Neu5Ac(a2-3)Gal
# How it was run: as §1
# [23] = target: Neu5Ac(a2-3)Gal(b1-3)GalNAc
# How it was run: as §1
# [24] = target: Neu5Ac(a2-3)Gal(b1-3)GalNAc(b1-3)Gal(a1-4)Gal(b1-4)Glc
# How it was run: as §1
# [25] = target: Neu5Ac(a2-3)Gal(b1-3)GalNAc(b1-3)Gal(b1-4)GlcNAc
# How it was run: as §1
# [26] = target: Neu5Ac(a2-3)Gal(b1-3)GalNAc(b1-4)[Neu5Ac(a2-3)]Gal(b1-4)Glc
# How it was run: as §1
# [27] = target: Neu5Ac(a2-3)Gal(b1-3)GalNAc(b1-4)[Neu5Ac(a2-8)Neu5Ac(a2-3)]Gal(b1-4)Glc
# How it was run: as §1
# [28] = target: Neu5Ac(a2-3)Gal(b1-3)GalNAc6S
# How it was run: as §1
# [29] = target: Neu5Ac(a2-3)Gal(b1-3)GlcNAc
# How it was run: as §1
# [30] = target: Neu5Ac(a2-3)Gal(b1-3)GlcNAc(b1-3)Gal(b1-3)GlcNAc
# How it was run: as §1
# [31] = target: Neu5Ac(a2-3)Gal(b1-3)GlcNAc(b1-3)Gal(b1-4)GlcNAc
# How it was run: as §1
# [32] = target: Neu5Ac(a2-3)Gal(b1-3)GlcNAc(b1-3)GalNAc
# How it was run: as §1
# [33] = target: Neu5Ac(a2-3)Gal(b1-3)GlcNAc6S
# How it was run: as §1
# [34] = target: Neu5Ac(a2-3)Gal(b1-3)[Fuc(a1-4)]GlcNAc
# How it was run: as §1
# [35] = target: Neu5Ac(a2-3)Gal(b1-3)[Fuc(a1-4)]GlcNAc(b1-3)Gal(b1-3)[Fuc(a1-4)]GlcNAc
# How it was run: as §1
# [36] = target: Neu5Ac(a2-3)Gal(b1-3)[Fuc(a1-4)]GlcNAc(b1-3)Gal(b1-4)[Fuc(a1-3)]GlcNAc
# How it was run: as §1
# [37] = target: Neu5Ac(a2-3)Gal(b1-3)[Neu5Ac(a2-3)Gal(b1-4)]GlcNAc
# How it was run: as §1
# [38] = target: Neu5Ac(a2-3)Gal(b1-3)[Neu5Ac(a2-6)]GalNAc
# How it was run: as §1
binder,measurement,setting,value
"FedF (Escherichia coli), Q47212 (protein) MRLKYILIIPLLLISLSVFASTLQVDKSVSYDWINSSASSAQVTGTLLGTGKTNTTQMPALYTWQHQIYNVNFIPSSSGTLTCQAGTILVWKNGRETQYALECRVSIHHSSGSINESQWGQQSQVGFGTACGNKKCRFTGFEISLRIPPNAQTYPLSSGDLKGSFSLTNKEVNWSASIYVPAIAKSYRLDTSITLPDTVNLKQNQATPVYYTFSAPSVSNTITGIPNQNDMPSSNVKLTIGPIQSKTTALYVQPDATGSWYDLSKSITMTVVKSSMLNFKGINAKPGNVTLSVPIVFEIQ",glycan array binding signal (z-score),[1],0.169
same,glycan array binding signal (z-score),[2],-0.203
same,glycan array binding signal (z-score),[3],-0.211
same,glycan array binding signal (z-score),[4],-0.161
same,glycan array binding signal (z-score),[5],-0.194
same,glycan array binding signal (z-score),[6],0.005
same,glycan array binding signal (z-score),[7],0.168
same,glycan array binding signal (z-score),[8],0.095
same,glycan array binding signal (z-score),[9],0.257
same,glycan array binding signal (z-score),[10],-0.119
same,glycan array binding signal (z-score),[11],-0.049
same,glycan array binding signal (z-score),[12],0.061
same,glycan array binding signal (z-score),[13],-0.186
same,glycan array binding signal (z-score),[14],0.086
same,glycan array binding signal (z-score),[15],0.375
same,glycan array binding signal (z-score),[16],0.04
same,glycan array binding signal (z-score),[17],-0.169
same,glycan array binding signal (z-score),[18],0.09
same,glycan array binding signal (z-score),[19],-0.077
same,glycan array binding signal (z-score),[20],-0.145
same,glycan array binding signal (z-score),[21],-0.436
same,glycan array binding signal (z-score),[22],-0.149
same,glycan array binding signal (z-score),[23],-0.17
same,glycan array binding signal (z-score),[24],-0.261
same,glycan array binding signal (z-score),[25],-0.225
same,glycan array binding signal (z-score),[26],-0.17
same,glycan array binding signal (z-score),[27],-0.176
same,glycan array binding signal (z-score),[28],0.178
same,glycan array binding signal (z-score),[29],-0.198
same,glycan array binding signal (z-score),[30],-0.192
same,glycan array binding signal (z-score),[31],0.115
same,glycan array binding signal (z-score),[32],0.236
same,glycan array binding signal (z-score),[33],-0.039
same,glycan array binding signal (z-score),[34],-0.424
same,glycan array binding signal (z-score),[35],-0.126
same,glycan array binding signal (z-score),[36],-0.014
same,glycan array binding signal (z-score),[37],-0.151
same,glycan array binding signal (z-score),[38],-0.219
